Source: PMC12820563, “FoxP3 forms a head-to-head dimer in vivo and stabilizes its multimerization on adjacent microsatellites”
Some of the results follow.

These sequences were tested against T1, MBP-FoxP1dN (Mus musculus, UniProt P58462 326-579) (assay: PD-seq (MBP pull-down with sequencing); 20 mM Tris-HCl pH 7.5, 100 mM NaCl, 1.5 mM MgCl2, 0.4 uM protein, 0.1 uM dsDNA library, 30 min, room temperature, amylose pull-down; high values mean tight binding). Conditions: protein: recombinant; tags: His6-MBP; chain copies: 2; dsDNA, one strand shown.
T1 sequence: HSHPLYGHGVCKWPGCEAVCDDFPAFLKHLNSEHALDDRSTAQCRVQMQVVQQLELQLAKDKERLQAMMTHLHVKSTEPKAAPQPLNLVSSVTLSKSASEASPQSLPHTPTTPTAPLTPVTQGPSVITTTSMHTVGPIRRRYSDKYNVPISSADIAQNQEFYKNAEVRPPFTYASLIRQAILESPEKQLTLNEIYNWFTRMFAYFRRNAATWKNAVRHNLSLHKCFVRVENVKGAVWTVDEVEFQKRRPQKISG
How it was run: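 Binding is reads-per-million enrichment of pull-down over input, with replicates pooled. It comes from 30 min room-temperature incubation in Tris pH 7.5 buffer with NaCl and MgCl2 of 0.4 µM His6-MBP-tagged, N-terminally truncated mouse FoxP3 or FoxP1 fragment from E. coli with 0.1 µM Klenow-filled degenerate double-stranded DNA library, followed by amylose resin capture, three washes and Illumina sequencing of the released DNA.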

Sequence | binding signal
GATGATTGTTCTCCCAGCTGATGAATTATGATGTTCGAGTAAACAAATTTTCCTAATCTTTCTGTTCAAGCGCCATCTAC | 1.22 RPM ratio (pull-down/input)
GATGATTGTTCTCCCAGCTGATGAATTGGTGACATCGAGTAAACAAATTTTCCTAATCTTTCTGTTCAAGCGCCATCTAC | 1.1 RPM ratio (pull-down/input)
GATGATTGTTCTCCCAGCTGATGAATTGATCAGTTCGAGTAAACAAATTTTCCTAATCTTTCTGTTCAAGCGCCATCTAC | 1.01 RPM ratio (pull-down/input)
GATGATTGTTCTCCCAGCTGATGAATTTATTCGGTCGAGTAAACAAATTTTCCTAATCTTTCTGTTCAAGCGCCATCTAC | 1.05 RPM ratio (pull-down/input)
GATGATTGTTCTCCCAGCTGATGAATTGCCCCGATCGAGTAAACAAATTTTCCTAATCTTTCTGTTCAAGCGCCATCTAC | 0.835 RPM ratio (pull-down/input)
GATGATTGTTCTCCCAGCTGATGAATTTTCGGTATCGAGTAAACAAATTTTCCTAATCTTTCTGTTCAAGCGCCATCTAC | 0.949 RPM ratio (pull-down/input)
GATGATTGTTCTCCCAGCTGATGAATTCATGTCGTCGAGTAAACAAATTTTCCTAATCTTTCTGTTCAAGCGCCATCTAC | 0.988 RPM ratio (pull-down/input)
GATGATTGTTCTCCCAGCTGATGAATTGTAAAGTTCGAGTAAACAAATTTTCCTAATCTTTCTGTTCAAGCGCCATCTAC | 0.993 RPM ratio (pull-down/input)
GATGATTGTTCTCCCAGCTGATGAATTAGAACTTTCGAGTAAACAAATTTTCCTAATCTTTCTGTTCAAGCGCCATCTAC | 0.886 RPM ratio (pull-down/input)
GATGATTGTTCTCCCAGCTGATGAATTAGCGGGATCGAGTAAACAAATTTTCCTAATCTTTCTGTTCAAGCGCCATCTAC | 0.824 RPM ratio (pull-down/input)
GATGATTGTTCTCCCAGCTGATGAATTAGGGTTATCGAGTAAACAAATTTTCCTAATCTTTCTGTTCAAGCGCCATCTAC | 0.956 RPM ratio (pull-down/input)
GATGATTGTTCTCCCAGCTGATGAATTAGAACTCTCGAGTAAACAAATTTTCCTAATCTTTCTGTTCAAGCGCCATCTAC | 0.819 RPM ratio (pull-down/input)
GATGATTGTTCTCCCAGCTGATGAATTCGCTTCATCGAGTAAACAAATTTTCCTAATCTTTCTGTTCAAGCGCCATCTAC | 0.861 RPM ratio (pull-down/input)
GATGATTGTTCTCCCAGCTGATGAATTTGGGTGTTCGAGTAAACAAATTTTCCTAATCTTTCTGTTCAAGCGCCATCTAC | 1.03 RPM ratio (pull-down/input)
GATGATTGTTCTCCCAGCTGATGAATTCGCTACATCGAGTAAACAAATTTTCCTAATCTTTCTGTTCAAGCGCCATCTAC | 0.968 RPM ratio (pull-down/input)
GATGATTGTTCTCCCAGCTGATGAATTCGGCTTTTCGAGTAAACAAATTTTCCTAATCTTTCTGTTCAAGCGCCATCTAC | 0.85 RPM ratio (pull-down/input)
GATGATTGTTCTCCCAGCTGATGAATTAGTAAAGTCGAGTAAACAAATTTTCCTAATCTTTCTGTTCAAGCGCCATCTAC | 1.05 RPM ratio (pull-down/input)
GATGATTGTTCTCCCAGCTGATGAATTTTATCGTTCGAGTAAACAAATTTTCCTAATCTTTCTGTTCAAGCGCCATCTAC | 1 RPM ratio (pull-down/input)
GATGATTGTTCTCCCAGCTGATGAATTTAGCACCTCGAGTAAACAAATTTTCCTAATCTTTCTGTTCAAGCGCCATCTAC | 0.919 RPM ratio (pull-down/input)
GATGATTGTTCTCCCAGCTGATGAATTAAATAACTCGAGTAAACAAATTTTCCTAATCTTTCTGTTCAAGCGCCATCTAC | 1.4 RPM ratio (pull-down/input)
GATGATTGTTCTCCCAGCTGATGAATTTTGGGGATCGAGTAAACAAATTTTCCTAATCTTTCTGTTCAAGCGCCATCTAC | 0.804 RPM ratio (pull-down/input)

Sequence | binding signal
GATGATTGTTCTCCCAGCTGATGAATTCCAGCGGTCGAGTAAACAAATTTTCCTAATCTTTCTGTTCAAGCGCCATCTAC | 0.744 RPM ratio (pull-down/input)
GATGATTGTTCTCCCAGCTGATGAATTGATACAATCGAGTAAACAAATTTTCCTAATCTTTCTGTTCAAGCGCCATCTAC | 1.69 RPM ratio (pull-down/input)
GATGATTGTTCTCCCAGCTGATGAATTGATATCTTCGAGTAAACAAATTTTCCTAATCTTTCTGTTCAAGCGCCATCTAC | 1.04 RPM ratio (pull-down/input)
GATGATTGTTCTCCCAGCTGATGAATTACCTAAGTCGAGTAAACAAATTTTCCTAATCTTTCTGTTCAAGCGCCATCTAC | 0.966 RPM ratio (pull-down/input)
GATGATTGTTCTCCCAGCTGATGAATTGGGGGTATCGAGTAAACAAATTTTCCTAATCTTTCTGTTCAAGCGCCATCTAC | 0.983 RPM ratio (pull-down/input)
GATGATTGTTCTCCCAGCTGATGAATTCGGCTATTCGAGTAAACAAATTTTCCTAATCTTTCTGTTCAAGCGCCATCTAC | 0.818 RPM ratio (pull-down/input)
GATGATTGTTCTCCCAGCTGATGAATTGGAGTCGTCGAGTAAACAAATTTTCCTAATCTTTCTGTTCAAGCGCCATCTAC | 0.815 RPM ratio (pull-down/input)
GATGATTGTTCTCCCAGCTGATGAATTTGTTAGGTCGAGTAAACAAATTTTCCTAATCTTTCTGTTCAAGCGCCATCTAC | 1.16 RPM ratio (pull-down/input)
GATGATTGTTCTCCCAGCTGATGAATTAGACGCCTCGAGTAAACAAATTTTCCTAATCTTTCTGTTCAAGCGCCATCTAC | 0.989 RPM ratio (pull-down/input)
GATGATTGTTCTCCCAGCTGATGAATTGTGTTATTCGAGTAAACAAATTTTCCTAATCTTTCTGTTCAAGCGCCATCTAC | 2.18 RPM ratio (pull-down/input)
GATGATTGTTCTCCCAGCTGATGAATTGATAACATCGAGTAAACAAATTTTCCTAATCTTTCTGTTCAAGCGCCATCTAC | 1.66 RPM ratio (pull-down/input)
GATGATTGTTCTCCCAGCTGATGAATTGAGATGCTCGAGTAAACAAATTTTCCTAATCTTTCTGTTCAAGCGCCATCTAC | 1.07 RPM ratio (pull-down/input)
GATGATTGTTCTCCCAGCTGATGAATTATGATAATCGAGTAAACAAATTTTCCTAATCTTTCTGTTCAAGCGCCATCTAC | 1.44 RPM ratio (pull-down/input)
GATGATTGTTCTCCCAGCTGATGAATTACCCGACTCGAGTAAACAAATTTTCCTAATCTTTCTGTTCAAGCGCCATCTAC | 0.873 RPM ratio (pull-down/input)
GATGATTGTTCTCCCAGCTGATGAATTGACCTGTTCGAGTAAACAAATTTTCCTAATCTTTCTGTTCAAGCGCCATCTAC | 0.98 RPM ratio (pull-down/input)
GATGATTGTTCTCCCAGCTGATGAATTGGTAATATCGAGTAAACAAATTTTCCTAATCTTTCTGTTCAAGCGCCATCTAC | 1.22 RPM ratio (pull-down/input)
GATGATTGTTCTCCCAGCTGATGAATTCCGCGCATCGAGTAAACAAATTTTCCTAATCTTTCTGTTCAAGCGCCATCTAC | 1.2 RPM ratio (pull-down/input)
GATGATTGTTCTCCCAGCTGATGAATTAAATAAATCGAGTAAACAAATTTTCCTAATCTTTCTGTTCAAGCGCCATCTAC | 1.49 RPM ratio (pull-down/input)
GATGATTGTTCTCCCAGCTGATGAATTAAGGTTATCGAGTAAACAAATTTTCCTAATCTTTCTGTTCAAGCGCCATCTAC | 1 RPM ratio (pull-down/input)
GATGATTGTTCTCCCAGCTGATGAATTTCAGCAATCGAGTAAACAAATTTTCCTAATCTTTCTGTTCAAGCGCCATCTAC | 0.988 RPM ratio (pull-down/input)
GATGATTGTTCTCCCAGCTGATGAATTTGACTCTTCGAGTAAACAAATTTTCCTAATCTTTCTGTTCAAGCGCCATCTAC | 0.761 RPM ratio (pull-down/input)

Sequence | binding signal
GATGATTGTTCTCCCAGCTGATGAATTTAGTCGCTCGAGTAAACAAATTTTCCTAATCTTTCTGTTCAAGCGCCATCTAC | 0.946 RPM ratio (pull-down/input)
GATGATTGTTCTCCCAGCTGATGAATTTTGCATCTCGAGTAAACAAATTTTCCTAATCTTTCTGTTCAAGCGCCATCTAC | 1.52 RPM ratio (pull-down/input)
GATGATTGTTCTCCCAGCTGATGAATTTTAACGCTCGAGTAAACAAATTTTCCTAATCTTTCTGTTCAAGCGCCATCTAC | 0.874 RPM ratio (pull-down/input)
GATGATTGTTCTCCCAGCTGATGAATTTCTGCGGTCGAGTAAACAAATTTTCCTAATCTTTCTGTTCAAGCGCCATCTAC | 0.8 RPM ratio (pull-down/input)
GATGATTGTTCTCCCAGCTGATGAATTGGTCGTTTCGAGTAAACAAATTTTCCTAATCTTTCTGTTCAAGCGCCATCTAC | 0.935 RPM ratio (pull-down/input)
GATGATTGTTCTCCCAGCTGATGAATTGTCGTGATCGAGTAAACAAATTTTCCTAATCTTTCTGTTCAAGCGCCATCTAC | 1.09 RPM ratio (pull-down/input)
GATGATTGTTCTCCCAGCTGATGAATTCAGTTTTTCGAGTAAACAAATTTTCCTAATCTTTCTGTTCAAGCGCCATCTAC | 0.988 RPM ratio (pull-down/input)
GATGATTGTTCTCCCAGCTGATGAATTCACTAGCTCGAGTAAACAAATTTTCCTAATCTTTCTGTTCAAGCGCCATCTAC | 0.809 RPM ratio (pull-down/input)
GATGATTGTTCTCCCAGCTGATGAATTAGGCAATTCGAGTAAACAAATTTTCCTAATCTTTCTGTTCAAGCGCCATCTAC | 1.04 RPM ratio (pull-down/input)
GATGATTGTTCTCCCAGCTGATGAATTAACGCACTCGAGTAAACAAATTTTCCTAATCTTTCTGTTCAAGCGCCATCTAC | 1.06 RPM ratio (pull-down/input)
GATGATTGTTCTCCCAGCTGATGAATTGTGCGGCTCGAGTAAACAAATTTTCCTAATCTTTCTGTTCAAGCGCCATCTAC | 0.877 RPM ratio (pull-down/input)
GATGATTGTTCTCCCAGCTGATGAATTCTTGCGTTCGAGTAAACAAATTTTCCTAATCTTTCTGTTCAAGCGCCATCTAC | 1.01 RPM ratio (pull-down/input)
GATGATTGTTCTCCCAGCTGATGAATTAACTTGCTCGAGTAAACAAATTTTCCTAATCTTTCTGTTCAAGCGCCATCTAC | 0.892 RPM ratio (pull-down/input)
GATGATTGTTCTCCCAGCTGATGAATTAATTTGGTCGAGTAAACAAATTTTCCTAATCTTTCTGTTCAAGCGCCATCTAC | 0.887 RPM ratio (pull-down/input)
GATGATTGTTCTCCCAGCTGATGAATTAATGGGCTCGAGTAAACAAATTTTCCTAATCTTTCTGTTCAAGCGCCATCTAC | 0.848 RPM ratio (pull-down/input)
GATGATTGTTCTCCCAGCTGATGAATTGGTGTGATCGAGTAAACAAATTTTCCTAATCTTTCTGTTCAAGCGCCATCTAC | 1.09 RPM ratio (pull-down/input)
GATGATTGTTCTCCCAGCTGATGAATTACTGGTTTCGAGTAAACAAATTTTCCTAATCTTTCTGTTCAAGCGCCATCTAC | 1.12 RPM ratio (pull-down/input)
GATGATTGTTCTCCCAGCTGATGAATTGTCTGTATCGAGTAAACAAATTTTCCTAATCTTTCTGTTCAAGCGCCATCTAC | 1.07 RPM ratio (pull-down/input)
GATGATTGTTCTCCCAGCTGATGAATTGACACGATCGAGTAAACAAATTTTCCTAATCTTTCTGTTCAAGCGCCATCTAC | 1.2 RPM ratio (pull-down/input)
GATGATTGTTCTCCCAGCTGATGAATTACGACGTTCGAGTAAACAAATTTTCCTAATCTTTCTGTTCAAGCGCCATCTAC | 1.04 RPM ratio (pull-down/input)
GATGATTGTTCTCCCAGCTGATGAATTGTCTCTGTCGAGTAAACAAATTTTCCTAATCTTTCTGTTCAAGCGCCATCTAC | 0.977 RPM ratio (pull-down/input)
